Measurements as given in publication PMC4336329 (PLoS ONE, 2015).
About 2,200 (0.71%) of roughly 310,000 compounds showed an effect of 50% or more. Effects have a minus sign here. This is one part of the list.

molecular target: human ether-à-go-go-related gene (hERG) potassium channel (human, UniProt Q12809); experiment: primary screen, population patch clamp on CHO cells stably expressing hERG
Sequence (Q12809 whole entry, looked up): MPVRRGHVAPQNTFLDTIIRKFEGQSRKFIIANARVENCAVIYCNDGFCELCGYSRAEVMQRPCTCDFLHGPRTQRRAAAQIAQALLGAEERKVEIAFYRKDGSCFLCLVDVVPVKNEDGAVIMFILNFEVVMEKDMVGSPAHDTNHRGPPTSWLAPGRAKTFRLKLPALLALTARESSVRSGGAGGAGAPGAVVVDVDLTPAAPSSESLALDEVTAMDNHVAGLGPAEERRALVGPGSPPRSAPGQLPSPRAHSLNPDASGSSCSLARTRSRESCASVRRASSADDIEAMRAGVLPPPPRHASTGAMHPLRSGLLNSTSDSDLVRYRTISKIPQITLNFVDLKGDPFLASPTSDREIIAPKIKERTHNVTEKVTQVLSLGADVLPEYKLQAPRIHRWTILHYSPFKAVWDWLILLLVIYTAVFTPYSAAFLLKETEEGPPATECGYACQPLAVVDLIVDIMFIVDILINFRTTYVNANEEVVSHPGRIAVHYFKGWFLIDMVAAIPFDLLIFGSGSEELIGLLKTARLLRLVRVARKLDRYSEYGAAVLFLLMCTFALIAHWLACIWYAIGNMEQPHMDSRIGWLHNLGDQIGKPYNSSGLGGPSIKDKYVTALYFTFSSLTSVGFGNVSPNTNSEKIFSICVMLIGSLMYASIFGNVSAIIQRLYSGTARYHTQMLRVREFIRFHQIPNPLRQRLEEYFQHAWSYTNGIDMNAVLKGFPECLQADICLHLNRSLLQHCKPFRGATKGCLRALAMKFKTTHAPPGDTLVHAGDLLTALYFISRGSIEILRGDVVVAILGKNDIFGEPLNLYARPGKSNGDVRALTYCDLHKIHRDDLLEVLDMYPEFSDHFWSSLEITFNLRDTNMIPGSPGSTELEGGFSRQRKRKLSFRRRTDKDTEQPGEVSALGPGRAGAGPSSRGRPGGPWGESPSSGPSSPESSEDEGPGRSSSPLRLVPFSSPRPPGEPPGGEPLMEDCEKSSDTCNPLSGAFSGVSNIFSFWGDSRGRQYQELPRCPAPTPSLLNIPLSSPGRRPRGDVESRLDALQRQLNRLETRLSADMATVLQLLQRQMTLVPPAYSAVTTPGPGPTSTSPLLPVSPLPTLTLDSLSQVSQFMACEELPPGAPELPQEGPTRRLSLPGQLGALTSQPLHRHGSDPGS

| Structure (SMILES) | hERG current change (%, negative = inhibition) at 1uM [%] |
| --- | --- |
| COc1ccc(OC)c(NC(=O)COC(=O)CN(C)S(=O)(=O)c2ccc(C)cc2)c1 | 2.41 |
| O=C(CCNC(=O)Cn1ccc2ccccc2c1=O)NCCN1CCN(c2cccc(Cl)c2)CC1 | 8.64 |
| COc1ccc(NC(=O)c2ccc(S(=O)(=O)N3CC(C)CC(C)C3)cc2)cc1S(N)(=O)=O (stereo not drawn) | 21 |
| CN(CC(=O)Nc1cc(S(=O)(=O)N2CCOCC2)ccc1Cl)C1CCS(=O)(=O)C1 (stereo not drawn) | 5.99 |
| Cc1cc(C(=O)NNC(=O)CN2C(=O)NC(C)(c3ccccc3)C2=O)c(C)o1 (stereo not drawn) | 14.3 |
| CN1C(=O)C(O)(c2sc(N)nc2-c2ccccc2)c2ccccc21 (stereo not drawn) | 11.2 |
| Cc1ccc(NCc2nnc(SCC(=O)N3c4ccccc4Sc4ccccc43)o2)c(C)c1 | 2.96 |
| COc1ccccc1NC(=O)CCNS(=O)(=O)c1ccc2c(c1)CC(C)N2C(=O)C1CC1 (stereo not drawn) | 17.2 |
| Cc1ccc(-c2c(C(=O)NCc3ccc(F)cc3)oc(=O)c3ccccc23)cc1 | 4.86 |
| Cc1ccc(CNC(=O)CN(C(=O)C2(C)CC(=O)N=C3C=CC=CN32)c2ccccc2)cc1 (stereo not drawn) | 15.9 |
| COc1cccc(C2c3[nH]c4ccccc4c3CCN2Cc2cccc(C)n2)c1 (stereo not drawn) | 4.02 |
| O=c1[nH]c2cc(Cl)ccc2n(CCNc2ncc(C(F)(F)F)cc2Cl)c1=O | 11.2 |
| CC(C)(CCl)C(=O)Nc1ccc(OC(F)(F)F)cc1 | -9.32 |
| O=C(NCCCNC(=O)c1cccnc1)c1ccc(Cl)cc1 | 13.8 |
| CCn1nc(NS(=O)(=O)c2ccc(NC(C)=O)cc2)c2cc3ccc(C)cc3nc21 | 2.47 |
| CCc1ccc(C(=O)N/N=C/c2ccncc2)s1 | 11.7 |
| CC(C)c1ccc[n+](-c2nc([O-])sc2C=O)c1 | 15.4 |
| CCOc1ccc(-c2nc(CN3CCCC(C(=O)N4CCOCC4)C3)c(C)o2)cc1 (stereo not drawn) | -5.79 |
| CCOC(=O)c1cc(CC)sc1NC(=O)CN1CCN(C(=O)c2ccco2)CC1 | -3.16 |

| Structure (SMILES) | hERG current change (%, negative = inhibition) at 1uM [%] |
| --- | --- |
| Cc1cccc(OC(C)C(=O)Nc2ccccc2C(=O)N2CCCCC2)c1 (stereo not drawn) | 7.13 |
| Oc1oc(-c2ccccc2)nc1C=NCc1ccncc1 | 11.7 |
| CCN(CC)S(=O)(=O)c1ccc(Cl)c(C(=O)NCC2CCCO2)c1 (stereo not drawn) | 14.2 |
| N#CCC(=O)Nc1ccc(C(=O)OCC(=O)Nc2cccc(C(F)(F)F)c2)cc1 | 4.82 |
| COCc1c(C#N)c(NCc2cc(OC)c(OC)c(OC)c2)nc(C)c1[N+](=O)[O-] | -10.4 |
| COc1ccccc1NS(=O)(=O)c1ccc(C(=O)NCC(c2ccco2)N(C)C)cc1 (stereo not drawn) | 11.2 |
| CCOC(=O)/C=C/C(=O)OCC(=O)Nc1cccc(Br)c1 | 5.46 |
| CCN(CC)c1ccc(NC(=O)c2ccc(Cl)nc2)cc1 | 13.3 |
| O=c1c2cccnc2[nH]c(=S)n1CCCN1CCN(c2ccc(F)cc2)CC1 | 12.9 |
| CN(C(=O)CSc1ncnc2sc(-c3ccccc3)cc12)C1CCS(=O)(=O)C1 (stereo not drawn) | 8.83 |
| CCOC(=O)[C@@H]1[C@H]2COc3cc(OC)ccc3[C@@H]2N2C(=O)N(c3ccc(Br)cc3)C(=O)[C@]12C | 8.74 |
| O=C(CN1CCN(c2ccccc2)CC1)Nc1ccncc1 | 9.98 |
| Cc1nn(C)cc1C(N)=O | -2.02 |
| COc1ccc(C(=O)C(/C=N/O)=N/Nc2ccc(F)cc2)cc1 | 21.7 |
| Cc1ccc(OCC(O)Cn2nc(C)cc2C)cc1 (stereo not drawn) | 13.2 |
| N#C/C(=C/c1cn[nH]c1-c1ccc(Br)cc1)C(=O)O | 6.09 |
| CC(C)CC(=O)Nc1c2c(nn1-c1cccc(Cl)c1)CS(=O)C2 (stereo not drawn) | 14.5 |
| Cc1noc(C)c1CSc1nnc2cc(C)c3ccccc3n12 | 11.9 |
| Cc1cc(=O)oc2cc(OCC(=O)NCc3cccnc3)ccc12 | 9.89 |

| Structure (SMILES) | hERG current change (%, negative = inhibition) at 1uM [%] |
| --- | --- |
| O=c1[nH]cnc(O)c1N=Nc1ccccc1 | 17.5 |
| CCCCCCNC(=O)N[C@@H](C(=O)NCCC[C@H]1CN2C(=NC[C@@H]2Cc2ccccc2)N1CCc1cccc(OC)c1)C(C)C | -10.6 |
| Cc1cc(C)cc(CSc2ccc(S(=O)(=O)N3CCCC3)cn2)c1 | -2.2 |
| O=C(CCc1ccccc1)NCc1ccncc1 | 17.7 |
| CSc1ncccc1C(=O)N(C)CC(=O)Nc1ccc(Cl)cc1 | 11.9 |
| Cc1ccc2c(C(=O)CN3CCN(c4ccccc4)CC3)c(C)[nH]c2c1 | 14.7 |
| COc1cccc(NC(=O)Cc2nnc(SCC(=O)NC3CCCCC3)n2C)c1 | 12.9 |
| CCOC(=O)/C(=C\c1c[nH]c2ccccc12)NC(C)=O | 9.03 |
| COC(=O)c1cc2c(cc1[N+](=O)[O-])OCO2 | 9.47 |
| COCc1cc(C)nc(SCC(=O)Nc2nc(C)cs2)c1C#N | 11.2 |
| O=c1[nH]c(O)c(N=Nc2ccc(S(=O)(=O)N3CCOCC3)cc2)c(=O)[nH]1 | 0.377 |
| CC(C)CNC(=O)c1cc(-c2ccc(Br)cc2)on1 | 15.4 |
| CCN1CCN(CC2COc3ccccc3O2)CC1.Cl (stereo not drawn) | 7.79 |
| NCCc1c[nH]c2ccc(OCc3ccccc3)cc12 | 9.3 |
| N/C(=N\OC(=O)CC1CCCCC1)c1cccc(Br)c1 | 22.2 |
| CCCC1=C(C(=O)OCC)C2(C(=O)Nc3ccc(C)cc32)C(C#N)=C(N)O1 (stereo not drawn) | -2.15 |
| CO/N=C/CC(=O)c1cnc(-c2ccccc2)s1 | 14.9 |
| Cc1nc2ncnn2c(C)c1CCC(=O)Oc1ccccc1 | 7.03 |
| CNC(=O)COC(=O)/C=C/c1cccs1 | 3.18 |
